In PubChem BioAssay AID1508623 (National Center for Advancing Translational Sciences (NCATS), 2021):
The whole screen tested about 48,000 compounds, of which about 450 (0.94%) were called active. Inconclusive results (about 19%) are left out. Calls come from the whole dose curve; as a rule, active = well fitted inhibition curve with a large enough effect; inconclusive = small, poorly fitted or top-dose-only effect; inactive = no such curve, though single readings can be large or run the other way. The list shows a part of the results.

Test: Primary qHTS for Identification of Small Molecule Inhibitors of Huntingtin Promoter Activity; note: nearly all actives have a fitted effect of over 50% in size
Conditions: HEK293 HTT promoter firefly luciferase reporter (activity 0% = vehicle and -100% = no light), 24 h; series mostly up to 57.5 µM; activity change, negative = inhibition: at the top concentration
Summary of the method: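 HEK293 luciferase promoter-reporter cells (2,500/well) plated 24 h, then compounds added at up to 57.5 uM final for 24 h at 37 °C. Firefly luminescence by Dual-Glo, normalized to vehicle (0%) and zero RLU (-100%).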

SMILES | activity change, negative = inhibition
CCOc1ccc(C(=O)NCCS(=O)(=O)N2CCN(c3ccccc3F)CC2)cc1OCC | inactive: -17.5%
COc1ccc(CN2CCN(c3ncnc4sc5c(c34)CC(C)CC5)CC2)cc1F (stereo unspecified) | inactive: -6.83%
COc1ccccc1N1CCN(CCCNC(=O)c2cnn(-c3ccccc3)c2C2CCN(C(=O)OC(C)(C)C)CC2)CC1 | inactive: -10.1%
CCc1ccc(-n2c(Cc3ccccc3)nnc2SCc2nc(-c3cccs3)no2)cc1 | inactive: -17%
Cc1ccc(/C=C/c2onc(C)c2S(=O)(=O)N2CCC(C(=O)NCC(C)c3ccccc3)CC2)cc1 (stereo unspecified) | inactive: -5.69%
CC1=C(C(=O)NCc2ccc(Cl)cc2)C2(CCCCC2)OC1=O | inactive: -26.6%
CC(C)C(=O)Nc1ccc([N+](=O)[O-])c(C(F)(F)F)c1 | inactive: -19.9%
CCCCCn1c(-c2ccc(OC)c(OC)c2)nc2ccccc21 | inactive: 13.1%
Cc1ccc(Cl)cc1N1CCN(S(=O)(=O)c2ccc3c(c2)CCCN3C(=O)C2CCC2)CC1 | inactive: -17.3%
Cc1ccc(CN2C(=O)c3oc4ccc(C)cc4c(=O)c3C2c2ccc(O)cc2)cc1 (stereo unspecified) | inactive: 0.356%
Cc1ccc(OCC(=O)N(Cc2ccco2)Cc2ccc(C)o2)cc1 | inactive: -28.5%
CCC(C)NC(=O)c1nn(-c2ccc(C)cc2)c(=O)n(C)c1=O (stereo unspecified) | inactive: -2.97%
COc1ccc(-c2cc(C(F)(F)F)n3nc(C(=O)Nc4ccccc4SC)cc3n2)cc1OC | inactive: -3.72%
COc1cc2c(=O)n(CCC(=O)NCC3CCCO3)c(=O)n(CC(=O)Nc3ccc(C)c(C)c3)c2cc1OC (stereo unspecified) | inactive: -22.2%
COc1cccc(CCNC(=O)c2c(O)nc3ccccn3c2=O)c1 | inactive: 16.8%
CC(C)c1cccc(OCCn2c(-c3ccc(Cl)cc3)nc3ccccc3c2=O)c1 | inactive: -9.4%
COCCCNC(=O)C1CCN(c2nn3cc(-c4ccc(F)cc4)nc3s2)CC1 | inactive: 8.17%
Cc1ccccc1C(=O)OCc1cc(=O)n2nc(-c3cccs3)sc2n1 | inactive: -15%
CC(=O)O[C@]1(C(C)=O)CC[C@@H]2[C@@H]3C[C@H](C)C4=CC(=O)CC[C@]4(C)[C@H]3CC[C@@]21C | inactive: -10.7%
CC1=C(C(=O)Nc2ccccc2)C(c2cccs2)n2nc(SCc3ccccc3F)nc2N1 (stereo unspecified) | inactive: -10.1%
Cc1ccc(C)c(NC(=O)c2cc(S(=O)(=O)N3CCCCCC3)ccc2F)c1 | inactive: -23%

SMILES | activity change, negative = inhibition
CN(C)CCN(Cc1ccco1)C(=O)c1oc2ccccc2c1NC(=O)c1ccccc1 | inactive: -26.3%
Cc1ccc2c(=O)c(C(=O)c3cccc(Cl)c3)cn(CC(=O)Nc3ccc4c(c3)OCCO4)c2n1 | inactive: -17.8%
Cn1cc(S(=O)(=O)c2cccc(Cl)c2)c(=O)c2cc(F)c(N3CCN(c4ccccc4)CC3)cc21 | inactive: -1.94%
O=C(CSc1nnc(NC(=O)Nc2ccccc2)s1)Nc1cccc(F)c1 | inactive: 22.2%
COc1ccc(CCCc2nnc(SCC(=O)Nc3ccc(OC)cc3)o2)cc1 | inactive: -8.66%
CN1C(=O)Cc2cc(S(=O)(=O)CCC(=O)Nc3ccc(F)c(Cl)c3)ccc21 | inactive: -10.5%
CN(C)[C@@H]1C(=O)C(C(N)=O)=C(O)[C@@]2(O)C(=O)C3=C(O)c4c(O)ccc(Cl)c4[C@@H](O)[C@H]3C[C@@H]12 | inactive: -0.562%
O=C(Nc1cc(F)ccc1F)N1CCC(CN2CCCC2)CC1 | inactive: -18.3%
COc1ccc2c(c1)CCCC2=O | inactive: 15%
CCc1ccccc1Nc1cc(C(=O)NC(C)c2ccccc2)c2ccccc2n1 (stereo unspecified) | inactive: 6.93%
CCCc1nn2c(=O)cc(COC(=O)c3ccccc3NC(=O)c3ccc(Cl)cc3)nc2s1 | inactive: 10%
CCOC(=O)c1ccccc1NC(=O)N1CCC(CN2CCCCC2)CC1 | inactive: -8.38%
Cc1ccc(NC(=O)C(C)Sc2nc(=O)cc(N)n2-c2ccccc2)cc1 (stereo unspecified) | inactive: -17.3%
CCCC(=O)Nc1ccc(-c2nc3ncccc3o2)cc1C | inactive: 42.1%
CCOc1ccc(NC(=O)C2CCN(c3nnc(-n4c(C)ccc4C)s3)CC2)cc1 | inactive: -21.3%
COCCNC(=O)c1cccc(-n2c(C)nc3cccnc32)c1 | inactive: -19.9%
Cc1nc(-c2cccnc2)sc1CCNS(=O)(=O)c1ccc(F)cc1 | inactive: -11.2%
COc1ccc(-c2cc(C(F)(F)F)nc(SCC(=O)NCCc3ccccc3)n2)cc1OC | inactive: -22.5%
CCc1sc(Nc2cccc(C)c2C)nc1-c1cc2cccc(OC)c2oc1=O | inactive: -10%
COc1cc(OC)cc(-n2c(=O)c3sccc3n(Cc3c(C)cc(C)cc3C)c2=O)c1 | inactive: -26%
COc1ccc(NC(=O)Cn2c(=O)n(CCc3ccccc3)c(=O)c3ccccc32)cc1 | inactive: 15.3%

SMILES | activity change, negative = inhibition
COc1cccc(CNS(=O)(=O)c2cc3c(cc2C)n(C)c(=O)c(=O)n3C)c1 | inactive: 4.91%
Cc1noc(-c2ccc(NCc3ccccc3)c([N+](=O)[O-])c2)n1 | inactive: 14.3%
CCCCNC(=O)c1c(C)oc2ncn(CC(C)C)c(=O)c12 | inactive: -20.7%
CCOc1ccc(NC(=O)Cn2nc(-c3ccncc3)ccc2=O)cc1 | inactive: -22.2% [at 11.5 µM]
O=C(c1cccc(Cl)c1)N1CCN(CCc2ccccn2)CC1 | inactive: -23.3%
Cc1ccccc1OCC(=O)Nc1cc(-c2cccc(Br)c2)nn1-c1ccccc1 | inactive: 1.48%
O=C(NCc1nc2cccnc2n1Cc1ccc(F)cc1)c1ccccc1C(F)(F)F | inactive: -14.9%
Nc1c(-c2nc(-c3ccncc3)no2)nnn1CC(=O)Nc1ccccc1 | inactive: -11.1%
COc1ccccc1CNCCSc1nnnn1C | inactive: -6.58%
COc1ccc(C(=O)N(Cc2ccco2)Cc2ccco2)cc1 | inactive: -1.23%
Cc1ccccc1CN1C(=O)c2ccccc2Sc2ccc(C(=O)NCc3cccs3)cc21 | inactive: -25.3%
Cc1noc(/C=C/c2ccccc2F)c1S(=O)(=O)N1CCC(C(=O)N(C)Cc2ccco2)CC1 | inactive: -26.5%
COC(=O)c1c(N)n(-c2cc(Cl)cc(Cl)c2)c2nc3ccccc3nc12 | inactive: -8.58%
CCC(=O)N1CCc2cc(Br)cc(S(=O)(=O)N3CCCC(C(=O)NCc4ccccc4)C3)c21 (stereo unspecified) | inactive: -25.4%
COc1ccc(S(=O)(=O)NCC(c2ccco2)N2CCOCC2)cc1C (stereo unspecified) | inactive: -21%
COc1ccccc1N1CCN(S(=O)(=O)c2c(C)sc3ncn(CC(=O)Nc4ccccc4F)c(=O)c23)CC1 | inactive: -8.43%
CCOc1ccc(/C=C/c2nc3ccccc3n2S(=O)(=O)c2ccc(Br)cc2)cc1 | inactive: 28.6%
COc1cccc(NC(=O)Cn2c(=O)n(-c3ccc(Cl)cc3)c(=O)c3sc4ccccc4c32)c1 | inactive: -13%
O=C(Cn1c(=O)nc(-c2ccccc2)c2cc(Cl)ccc21)NCCc1ccc(Cl)cc1 | inactive: -19.9%
